In the BET-seq Pho4 binding data (Le et al. 2018):
Some of the results follow. Values were computed here from the reads of four pooled replicates and scatter widely.

target: T1, Pho4 (S. cerevisiae) (UniProt P07270); test: relative binding free energy (BET-seq); higher = weaker binding; settings: reference: library average
T1 sequence: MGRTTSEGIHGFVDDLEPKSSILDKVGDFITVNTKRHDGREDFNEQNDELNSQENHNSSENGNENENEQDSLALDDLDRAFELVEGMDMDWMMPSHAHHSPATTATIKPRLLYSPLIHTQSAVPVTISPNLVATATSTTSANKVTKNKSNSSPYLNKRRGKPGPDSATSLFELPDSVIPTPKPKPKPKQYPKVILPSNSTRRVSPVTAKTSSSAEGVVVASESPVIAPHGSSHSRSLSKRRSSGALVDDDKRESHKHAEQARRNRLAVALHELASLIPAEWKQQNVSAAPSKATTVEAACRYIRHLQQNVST

Which “relative binding free energy” value does the source give for ATCGCCACGTGTGTGT here?
Its value is -0.03 kcal/mol.

Which “relative binding free energy” value does the source give for GGTGTCACGTGTAATT here?
Its value is 0.2 kcal/mol.

Which “relative binding free energy” value does the source give for TAGTACACGTGTATGA here?
The value was 0.05 kcal/mol.

For CGTTACACGTGCTGGG, which “relative binding free energy” value is on record?
Its value is 0.05 kcal/mol.

For GGAGTCACGTGATTTT, which “relative binding free energy” value is on record?
The value was 0.27 kcal/mol.

Which “relative binding free energy” value does the source give for TTAGACACGTGTGTGG here?
Its value is 0.13 kcal/mol.

How did the “relative binding free energy” value turn out when TGGTGCACGTGGGCGT was run?
The value was -0.17 kcal/mol.

AATAGCACGTGGCTGT was tested. Which “relative binding free energy” value did it give?
The value was -0.16 kcal/mol.

Which “relative binding free energy” value does the source give for TTTAACACGTGATTGG here?
Its value is 0.18 kcal/mol.

For TCGGGCACGTGGTACT, which “relative binding free energy” value is on record?
Its value is -0.16 kcal/mol.

How did the “relative binding free energy” value turn out when GGTCGCACGTGGTCTT was run?
The value was -0.04 kcal/mol.

For GTAATCACGTGTAAGT, which “relative binding free energy” value is on record?
The value was 0.08 kcal/mol.

GTAGACACGTGAGTGG was tested. Which “relative binding free energy” value did it give?
Its value is 0.2 kcal/mol.

How did the “relative binding free energy” value turn out when GGTGGCACGTGGAGAG was run?
The value was 0.07 kcal/mol.

Which “relative binding free energy” value does the source give for ACTGGCACGTGCTGGG here?
The value was -0.07 kcal/mol.

For ATATTCACGTGGCTGG, which “relative binding free energy” value is on record?
Its value is 0.07 kcal/mol.

With TGGGTCACGTGTCGTG as the sequence, how does the “relative binding free energy” value read?
Its value is 0.15 kcal/mol.

For TGTAACACGTGGTGTT, which “relative binding free energy” value is on record?
The value was -0.07 kcal/mol.

GTCAACACGTGGGTTT was tested. Which “relative binding free energy” value did it give?
Its value is 0.02 kcal/mol.

TGGCACACGTGGGTGT was tested. Which “relative binding free energy” value did it give?
Its value is -0.17 kcal/mol.

ATTATCACGTGTTTGG was tested. Which “relative binding free energy” value did it give?
Its value is 0.15 kcal/mol.

With TTTAGCACGTGGTCTT as the sequence, how does the “relative binding free energy” value read?
Its value is -0.07 kcal/mol.

Which “relative binding free energy” value does the source give for TTGTGCACGTGAAACG here?
Its value is 0.13 kcal/mol.

Which “relative binding free energy” value does the source give for TGACGCACGTGGCAGG here?
The value was -0.17 kcal/mol.

For GTATACACGTGGTGGG, which “relative binding free energy” value is on record?
The value was 0.03 kcal/mol.

For TGGGTCACGTGGGCAA, which “relative binding free energy” value is on record?
The value was 0.03 kcal/mol.

Which “relative binding free energy” value does the source give for GTATGCACGTGTCAGT here?
The value was 0.08 kcal/mol.

GTGAGCACGTGACATG was tested. Which “relative binding free energy” value did it give?
The value was 0.15 kcal/mol.

For TTTGGCACGTGTCTTT, which “relative binding free energy” value is on record?
The value was 0 kcal/mol.

For AAATGCACGTGGGGTT, which “relative binding free energy” value is on record?
The value was -0.19 kcal/mol.

How did the “relative binding free energy” value turn out when GGTAGCACGTGTGGGA was run?
The value was -0.02 kcal/mol.

For TGGCGCACGTGTCGTT, which “relative binding free energy” value is on record?
The value was -0.08 kcal/mol.

AAATGCACGTGAGGCG was tested. Which “relative binding free energy” value did it give?
Its value is 0.2 kcal/mol.

With GGTAGCACGTGGGACA as the sequence, how does the “relative binding free energy” value read?
Its value is -0.17 kcal/mol.

How did the “relative binding free energy” value turn out when TTTAGCACGTGTTGTA was run?
Its value is 0 kcal/mol.

GTTTGCACGTGTGCAG was tested. Which “relative binding free energy” value did it give?
Its value is 0.17 kcal/mol.

How did the “relative binding free energy” value turn out when TGCAACACGTGTTGTG was run?
The value was -0.11 kcal/mol.

For TAATGCACGTGAGGCG, which “relative binding free energy” value is on record?
The value was 0.08 kcal/mol.

TGTGCCACGTGATTTA was tested. Which “relative binding free energy” value did it give?
Its value is 0.02 kcal/mol.

How did the “relative binding free energy” value turn out when AGATACACGTGTGGTT was run?
Its value is 0.14 kcal/mol.

With GGTTGCACGTGGGTGA as the sequence, how does the “relative binding free energy” value read?
Its value is -0.02 kcal/mol.

Which “relative binding free energy” value does the source give for TCTTTCACGTGGGTTA here?
The value was 0.27 kcal/mol.

Which “relative binding free energy” value does the source give for GGGTTCACGTGATCGT here?
Its value is 0.44 kcal/mol.

For TGTCTCACGTGAGGGA, which “relative binding free energy” value is on record?
Its value is 0.37 kcal/mol.

TTTGACACGTGTAACG was tested. Which “relative binding free energy” value did it give?
Its value is 0.17 kcal/mol.

For GGTGGCACGTGCGGTG, which “relative binding free energy” value is on record?
Its value is -0.07 kcal/mol.

For CAGGGCACGTGTAGTA, which “relative binding free energy” value is on record?
The value was -0.13 kcal/mol.

GAGCACACGTGTGGTG was tested. Which “relative binding free energy” value did it give?
Its value is 0.14 kcal/mol.

With TTCTACACGTGATGGA as the sequence, how does the “relative binding free energy” value read?
The value was 0.24 kcal/mol.

For CGGTGCACGTGTAGGC, which “relative binding free energy” value is on record?
The value was 0.14 kcal/mol.

For AATTACACGTGCGTGT, which “relative binding free energy” value is on record?
The value was 0.06 kcal/mol.

With TTCAGCACGTGTGCGT as the sequence, how does the “relative binding free energy” value read?
Its value is -0.08 kcal/mol.

Which “relative binding free energy” value does the source give for GGCGTCACGTGAGGGC here?
The value was 0.15 kcal/mol.

How did the “relative binding free energy” value turn out when GGGAACACGTGGCGGA was run?
The value was -0.15 kcal/mol.

GAGGGCACGTGCGTGT was tested. Which “relative binding free energy” value did it give?
The value was -0.15 kcal/mol.

Which “relative binding free energy” value does the source give for CGGGGCACGTGAATGA here?
Its value is 0.18 kcal/mol.

With GAATGCACGTGTGCGG as the sequence, how does the “relative binding free energy” value read?
Its value is 0.27 kcal/mol.

How did the “relative binding free energy” value turn out when ATTGGCACGTGAGTGC was run?
The value was 0.15 kcal/mol.

How did the “relative binding free energy” value turn out when GGCCGCACGTGTTAGG was run?
Its value is 0.03 kcal/mol.

How did the “relative binding free energy” value turn out when CTGTTCACGTGTGCGA was run?
The value was 0.39 kcal/mol.

For TAGCTCACGTGGAGTG, which “relative binding free energy” value is on record?
Its value is 0.14 kcal/mol.

How did the “relative binding free energy” value turn out when ATATGCACGTGAGTTT was run?
Its value is 0.15 kcal/mol.

Which “relative binding free energy” value does the source give for GTTATCACGTGCAGTT here?
The value was 0.2 kcal/mol.

For ATGTACACGTGAGGAA, which “relative binding free energy” value is on record?
Its value is 0.17 kcal/mol.

For GAGGGCACGTGGATGC, which “relative binding free energy” value is on record?
Its value is 0.01 kcal/mol.

AAGGTCACGTGTAAGA was tested. Which “relative binding free energy” value did it give?
The value was 0.39 kcal/mol.

With ATGGTCACGTGGGTTC as the sequence, how does the “relative binding free energy” value read?
Its value is 0.1 kcal/mol.

With GTGCACACGTGTGGAG as the sequence, how does the “relative binding free energy” value read?
Its value is 0.13 kcal/mol.

With AATATCACGTGCGTGT as the sequence, how does the “relative binding free energy” value read?
Its value is 0.07 kcal/mol.

How did the “relative binding free energy” value turn out when ATGATCACGTGAGAGT was run?
The value was 0.23 kcal/mol.

TGATCCACGTGAAGTT was tested. Which “relative binding free energy” value did it give?
Its value is 0.3 kcal/mol.

For CCTTGCACGTGTTTGT, which “relative binding free energy” value is on record?
Its value is -0.08 kcal/mol.

For GTGTGCACGTGAGCTG, which “relative binding free energy” value is on record?
The value was 0.2 kcal/mol.

Which “relative binding free energy” value does the source give for ATTATCACGTGCTTGA here?
Its value is 0.08 kcal/mol.

With AGCGTCACGTGTGGGT as the sequence, how does the “relative binding free energy” value read?
The value was 0.07 kcal/mol.

With GGTATCACGTGTAAGG as the sequence, how does the “relative binding free energy” value read?
Its value is 0.28 kcal/mol.

For TGTATCACGTGCTAGT, which “relative binding free energy” value is on record?
Its value is 0.1 kcal/mol.

Which “relative binding free energy” value does the source give for TTGGTCACGTGCGAGG here?
The value was 0.18 kcal/mol.

How did the “relative binding free energy” value turn out when AAAGTCACGTGATCGT was run?
Its value is 0.17 kcal/mol.

How did the “relative binding free energy” value turn out when TGACTCACGTGGGATG was run?
The value was 0.22 kcal/mol.

With TTTGTCACGTGGTGCA as the sequence, how does the “relative binding free energy” value read?
Its value is -0.01 kcal/mol.

Which “relative binding free energy” value does the source give for ATATCCACGTGGTGTA here?
Its value is -0.01 kcal/mol.

Which “relative binding free energy” value does the source give for TCGGGCACGTGGGAAA here?
Its value is -0.03 kcal/mol.

With GGTCTCACGTGTGGGG as the sequence, how does the “relative binding free energy” value read?
The value was 0.27 kcal/mol.

Which “relative binding free energy” value does the source give for GGCGGCACGTGTGAAT here?
Its value is 0.12 kcal/mol.

CGTGGCACGTGAGAGA was tested. Which “relative binding free energy” value did it give?
Its value is 0.15 kcal/mol.

Which “relative binding free energy” value does the source give for TTTTTCACGTGCTGTT here?
The value was 0.36 kcal/mol.

Which “relative binding free energy” value does the source give for GTTGGCACGTGGCGGA here?
The value was -0.01 kcal/mol.

TTATACACGTGTGATC was tested. Which “relative binding free energy” value did it give?
The value was 0.2 kcal/mol.

Which “relative binding free energy” value does the source give for TGGTTCACGTGGCTGG here?
Its value is 0.23 kcal/mol.

With AGTAACACGTGTAGAT as the sequence, how does the “relative binding free energy” value read?
The value was 0.14 kcal/mol.

How did the “relative binding free energy” value turn out when AGTGTCACGTGCCGGG was run?
Its value is 0.07 kcal/mol.

For GTCGGCACGTGTGCGG, which “relative binding free energy” value is on record?
The value was -0.06 kcal/mol.

How did the “relative binding free energy” value turn out when AGTATCACGTGAAGGG was run?
Its value is 0.45 kcal/mol.

How did the “relative binding free energy” value turn out when TGGTTCACGTGGTACT was run?
Its value is 0.08 kcal/mol.

With GGGAGCACGTGGTGAT as the sequence, how does the “relative binding free energy” value read?
Its value is -0.17 kcal/mol.

TGAAACACGTGGGGGC was tested. Which “relative binding free energy” value did it give?
Its value is -0.05 kcal/mol.

How did the “relative binding free energy” value turn out when TTACTCACGTGTCTTT was run?
Its value is 0.26 kcal/mol.

How did the “relative binding free energy” value turn out when CGGGACACGTGTTTAT was run?
The value was 0 kcal/mol.

With TTTCTCACGTGATTGG as the sequence, how does the “relative binding free energy” value read?
The value was 0.3 kcal/mol.

For CTAGGCACGTGCGGTG, which “relative binding free energy” value is on record?
Its value is -0.24 kcal/mol.

With GGGGTCACGTGCTGTT as the sequence, how does the “relative binding free energy” value read?
Its value is 0.12 kcal/mol.

How did the “relative binding free energy” value turn out when TTTGTCACGTGAAAGC was run?
Its value is 0.27 kcal/mol.

GACGTCACGTGGAGTG was tested. Which “relative binding free energy” value did it give?
Its value is 0.15 kcal/mol.

For TATATCACGTGCGGCT, which “relative binding free energy” value is on record?
Its value is 0.22 kcal/mol.

With GCTTTCACGTGTTGGG as the sequence, how does the “relative binding free energy” value read?
Its value is 0.28 kcal/mol.

With TTATTCACGTGTGGTT as the sequence, how does the “relative binding free energy” value read?
The value was 0.33 kcal/mol.

Which “relative binding free energy” value does the source give for ATATTCACGTGTTTAA here?
The value was 0.08 kcal/mol.

How did the “relative binding free energy” value turn out when TCTGGCACGTGTTATG was run?
Its value is -0.04 kcal/mol.

Which “relative binding free energy” value does the source give for GTTGTCACGTGAGATG here?
The value was 0.34 kcal/mol.

Which “relative binding free energy” value does the source give for ATGGGCACGTGAATAA here?
The value was 0.2 kcal/mol.

With TGATTCACGTGTGGAT as the sequence, how does the “relative binding free energy” value read?
The value was 0.25 kcal/mol.

How did the “relative binding free energy” value turn out when TGCGTCACGTGTAGTA was run?
The value was 0.11 kcal/mol.

For CGCTGCACGTGAGTGT, which “relative binding free energy” value is on record?
The value was 0.12 kcal/mol.

GGGGTCACGTGAAAAG was tested. Which “relative binding free energy” value did it give?
Its value is 0.48 kcal/mol.
